PubChem BioAssay AID686979 (National Center for Advancing Translational Sciences (NCATS), 2013)
The campaign covered roughly 420,000 compounds. About 50,000 (12%) were called active. This list was built around the results that the source calls inconclusive (neither active nor inactive); the mix of calls is not that of the screen. Calls come from the whole dose curve; as a rule, active = well fitted inhibition curve with a large enough effect; inconclusive = small, poorly fitted or top-dose-only effect; inactive = flat fitted curve, though single readings scatter. No potency is given beside an inconclusive call; the fits are too rough.

Assay: qHTS for Inhibitors of human tyrosyl-DNA phosphodiesterase 1 (TDP1): qHTS in cells in presence of CPT; note: nearly all actives have a fitted effect of over 55% in size
Conditions: chicken DT40 Tdp1-/-;hTDP1 cells + 20 nM CPT, ATP luminescence, 48 h; activity change, negative = growth inhibition: at 46.2 µM (top of the series) unless noted
How it was run: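 Chicken DT40 Tdp1-/- cells stably complemented with human TDP1 were seeded at 400 cells/well in medium containing 20 nM camptothecin, exposed to pin-transferred compounds, and grown at 37 °C for at least 48 hr. Viability was read as ATP luminescence.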
% is set by controls: 0 for no effect and ±100 for the full control effect; potency is the fitted concentration of half-maximal effect; tags give direction and shape of the fitted curve.

| SMILES | Potency | activity change, negative = growth inhibition |
| --- | --- | --- |
| COc1c(Br)cc2c(C)c(C(=O)N3CCOCC3)oc2c1Br | active: 20.6 µM |  |
| O=S(=O)(Nc1ccc2c(c1)nc1n2CCOC1)c1ccc(Cl)cc1 | inconclusive [inhibitor, partial curve] |  |
| Cc1ccccc1-c1nc(CS(=O)(=O)CC(=O)Nc2c(C)cccc2C)c(C)o1 | inconclusive [inhibitor, single point] |  |
| COc1ccc(C(=O)N2CCC(C(=O)N3CCN(c4ccc(OC)cc4)CC3)CC2)cc1 | inconclusive [inhibitor, partial curve, poor fit] |  |
| Cc1ccc(CN2C(=O)C(C)Oc3ccccc32)cc1 (configuration not stated) | inconclusive [inhibitor, single point] |  |
| CC(=O)c1sc(NC(=O)C2CCN(c3ncnc4sc(C)c(C)c34)CC2)nc1-c1ccccc1 | inconclusive [inhibitor, single point] |  |
| COc1ccccc1N1CCN(CC(=O)c2c(C)[nH]c3cc(C)ccc23)CC1 | inconclusive [inhibitor, partial curve] |  |
| COc1ccc(-c2nc3ccccc3o2)cc1NC(=O)COc1c(C)cc(Cl)cc1Cl | active: 2.91 µM |  |
| CC(NC(=O)CCNS(=O)(=O)c1ccc2c(c1)oc(=O)n2C)c1ccccc1 (configuration not stated) |  | inactive: 1.15% |
| Cc1ccccc1OCC(=O)Nc1ccc2c(c1)C(=O)c1ccccc1C2=O |  | inactive: 0.34% |
| Cc1cc(NC(=O)CSc2nnnn2-c2ccc(C)c(Cl)c2)no1 |  | inactive: -18.6% |
| CCC[C@@H]1Cc2ccccc2N1C(C)=O | inconclusive [inhibitor, single point] |  |
| CC(C)S(=O)(=O)c1csc(NC(=O)Nc2ccc(Cl)cc2)c1 | active: 7.31 µM |  |
| COC(=O)c1ccc2nc(-c3cccc(Br)c3)c(Cc3ccsc3)n2c1 | inconclusive [inhibitor, single point] |  |
| COc1cccc2cc(CC(=O)c3cc(C)ccc3C)c(=O)oc12 | inconclusive [inhibitor, single point] |  |
| CCc1ccc2c(c1)c(=O)c(S(=O)(=O)c1ccccc1)cn2CC(=O)Nc1cc(C)ccc1C |  | inactive: 16.3% |
| Cc1cccc(-c2nc3c4ccccc4n(CC(=O)Nc4cccc(F)c4)c(=O)n3n2)c1 | inconclusive [inhibitor, single point] |  |
| CCOC(=O)N/N=C\c1ccc([N+](=O)[O-])o1 | inconclusive [inhibitor, single point] |  |
| O=S1(=O)N=C(SCCO)c2ccccc21 | inconclusive [inhibitor, single point] |  |
| COc1ccc(OC)c(NC(=O)c2ccc3c(=O)n(CCc4ccccc4)c(=S)[nH]c3c2)c1 | inconclusive [inhibitor, single point] |  |
| CC1CN(CC(=O)Nc2ccccc2Sc2ccccc2)CC(C)O1 (configuration not stated) | active: 23.1 µM |  |
| COc1ccc(OC)c(S(=O)(=O)N2CCC3(CC2)OCCN3S(=O)(=O)c2cccs2)c1 | inconclusive [inhibitor, single point] |  |
| Cc1noc(C)c1C(=O)OCC(=O)Nc1ccccc1SCC#N |  | inactive: -4.71% |
| O=C(N/N=C/c1ccccc1)c1n[nH]c2c1CCCC2 | inconclusive [inhibitor, single point] |  |

| SMILES | Potency | activity change, negative = growth inhibition |
| --- | --- | --- |
| Cc1ccc(C(=O)N2CCN(S(=O)(=O)c3ccc(C(C)C)cc3)CC2)s1 | inconclusive [inhibitor, single point] |  |
| CCOC(=O)c1c(NC(=O)Cc2cccs2)sc(C(=O)NC2CCCCC2)c1C | inconclusive [inhibitor, single point] |  |
| N#Cc1ccc(NC(=O)c2sc3cc(C(F)(F)F)cnc3c2-c2cccs2)cc1 |  | inactive: -28.2% |
| O=C(CCCN1C(=O)C(c2ccccc2)Oc2cccnc21)NCc1ccccc1Cl (configuration not stated) | inconclusive [inhibitor, single point] |  |
| O=C(CSc1nccn1Cc1ccc(F)cc1)Nc1ccc(F)cc1F |  | inactive: -22.7% |
| Cc1ccc(C)c(OCc2cc(C(=O)N3C[C@@H](C)O[C@@H](C)C3)no2)c1 | active: 16.4 µM |  |
| C=CCN(C(=O)CCC(=O)O)C1CC(=O)N(c2ccc(OCCC)cc2)C1=O (configuration not stated) | active: 23.1 µM |  |
| CC(C)C[C@H]1CN=C(Nc2ccccc2)N1CCC1CCCC1 | inconclusive [inhibitor, single point] |  |
| O=C1c2cccc3cccc(c23)C(=O)N1CCN1CCN(CC(O)COc2ccc3ccccc3c2)CC1 (configuration not stated) | active: 18.4 µM |  |
| O=C(COC(=O)c1nc(Cl)ccc1Cl)c1ccccc1Cl |  | inactive: -5.45% |
| O=C(O)c1ccc(NC(=S)NC2CCCCC2)cc1 |  | inactive: 13.2% |
| COC(=O)c1cc2sc(C)cc2n1Cc1nc(-c2cccc(Br)c2)oc1C |  | inactive: -0.0179% |
| CC(C)(C)OC(=O)N1CCC(c2c(C(=O)N3CCN(c4ccccc4F)CC3)cnn2C(C)(C)C)CC1 | active: 23.1 µM |  |
| CCCCN(C=O)c1c(CC)nc2ccc(C(=O)NCCc3c[nH]c4ccccc34)cn12 | inconclusive [inhibitor, single point] |  |
| CC(C)[C@H](NC(=O)OCc1ccccc1)C(=O)OCC(=O)N1CCN(c2ccc(F)cc2)CC1 | inconclusive [inhibitor, single point] |  |
| CC1(C(=O)Nc2ccc3c(c2)OCCO3)CCN1C(=O)C1(c2ccccc2)CC1 (configuration not stated) | inconclusive [inhibitor, single point] |  |
| CN1CCN(c2ncc3nc(-c4cc(F)cc(F)c4)c(=O)n(CCC#N)c3n2)CC1 | inconclusive [inhibitor, single point] |  |
| Cc1cc2cc(CNC(=S)Nc3ccc(OC(F)F)cc3)ccc2[nH]1 | inconclusive [inhibitor, single point] |  |
| CCc1ccc(C(=O)Nc2ccc3nc(C)ccc3c2)cc1 | inconclusive [inhibitor, single point] |  |
| N#C/C(=C/c1ccccc1Cl)c1nc(-c2cc3ccccc3oc2=O)cs1 |  | inactive: -1.53% |
| O=C(CCl)Nc1ccccc1Sc1ccccc1 | inconclusive [inhibitor, single point] |  |
| O=C(COc1ccc(S(=O)(=O)N2CCCCC2)cc1)N1CCCCCC1 |  | inactive: -13.2% |
| COc1ccc(C(=O)CCS(=O)(=O)c2ccc(C)cc2)cc1OC | active: 3.66 µM |  |
| Cc1ccc(NC(=O)c2ncn(CCCNCc3ccccc3)n2)cc1C | inconclusive [inhibitor, single point] |  |

| SMILES | Potency | activity change, negative = growth inhibition |
| --- | --- | --- |
| Cc1ccc(NC(NC(=O)c2cccs2)C(Cl)(Cl)Cl)cc1C (configuration not stated) | inconclusive [inhibitor, partial curve] |  |
| COc1ccc(-c2cc(C(=O)N3CCN(Cc4ccc5c(c4)OCO5)CC3)on2)cc1OC | inconclusive [inhibitor, single point] |  |
| O=C1SCCc2c1n(Cc1ccccc1)c1ccccc21 | inconclusive [inhibitor, single point] |  |
| CC(=O)Nc1ccc2c(c1)C(N1CC3CCC(CC3)C1)c1ccccc1-2 (configuration not stated) |  | inconclusive: -31.5% [inhibitor] |
| Cc1cccc(-c2ncc(CN3CCN(CC(C)C)C(CCO)C3)cn2)c1 (configuration not stated) |  | inactive: -17.9% |
| COc1cc(C)ccc1OCCSc1nc2ccc(NC(=O)c3ccccc3F)cc2s1 | inconclusive [inhibitor, single point] |  |
| CCOC(=O)Cc1csc(NC(=O)CN2CCOCC2)n1 |  | inactive: 35.7% |
| CCOc1ccc(C2C(C(=O)OC)=CN(C(C)c3ccccc3)C=C2C(=O)OC)cc1 (configuration not stated) | inconclusive [inhibitor, single point] |  |
| O=C(Cn1c(=O)n(CC2CCCO2)c(=O)c2ccccc21)Nc1ccc(F)cc1F (configuration not stated) |  | inactive: -7.48% |
| O=C(Nc1nsc(-c2ccccc2)n1)c1cccs1 | inconclusive [inhibitor, partial curve, poor fit] |  |
| COc1ccc2cc3cc(C(=O)NCCN4CCc5ccccc5C4)oc3nc2c1 | inconclusive [inhibitor, single point] |  |
| COc1ccc(N2CCN(C(=O)Cn3cnc4sc(C)c(S(=O)(=O)N5CCOCC5)c4c3=O)CC2)cc1 | inconclusive [inhibitor, single point] |  |
| Fc1ccc(NCc2ccccc2-c2nnc(-c3ccccc3Cl)o2)cc1Cl | inconclusive [inhibitor, single point] |  |
| O=C1C=C(N2CCCCCC2)C2(CCCCC2)O1 |  | inactive: -0.941% |
| CC(=O)N1CCN(c2ccc(NC(=O)c3ccccc3)cc2)CC1 |  | inactive: 6.26% |
| O=C(Nc1ccccc1)N1CCC2(CC1)CCN(C(=O)c1csnn1)CC2 |  | inactive: 11.6% |
| COc1ccc(C2CC(c3ccccc3O)=NN2C(=O)c2ccccc2)cc1OC (configuration not stated) | inconclusive [inhibitor, single point] |  |
| COc1ccc(OC(C)C(=O)Nc2cccnc2)cc1 (configuration not stated) |  | inactive: -18.3% |
| O=C(c1cccc(F)c1)N1CCC2(CC1)NCCc1[nH]cnc12 |  | inconclusive: -6.32% [inhibitor] |
| CCCC(=O)NC(c1ccco1)c1c(O)ccc2ccccc12 (configuration not stated) | inconclusive [inhibitor, partial curve, poor fit] |  |
| Cc1ccc(-n2nc3c([n+]2[O-])CCc2c-3no[n+]2[O-])cc1 | inconclusive [inhibitor, single point] |  |
| Cc1noc(C)c1COc1ccccc1C(=O)NC1CCC(C)CC1 (configuration not stated) |  | inactive: -29.7% |
| Cc1ccccc1C(=O)Nc1cccc(NC(=O)c2ccc(F)cc2)c1 |  | inactive: -18% |
| CCOCCOc1cc(NCc2ccccc2)c2ncn(C(C)C)c2c1 | inconclusive [inhibitor, single point] |  |
